Reference: PMC4336329 (PLoS ONE, 2015)
The whole screen tested about 310,000 compounds, of which about 14,000 (4.5%) showed an effect of 50% or more. The effect is printed as a negative number. Some of the results follow.

target: human ether-à-go-go-related gene (hERG) potassium channel (human, UniProt Q12809); assay: primary screen, population patch clamp on CHO cells stably expressing hERG
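Also: peak tail current of the secondary pulse compared with the same well before compound.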

Chain of human ether-à-go-go-related gene (hERG) potassium channel (Q12809 whole entry, looked up): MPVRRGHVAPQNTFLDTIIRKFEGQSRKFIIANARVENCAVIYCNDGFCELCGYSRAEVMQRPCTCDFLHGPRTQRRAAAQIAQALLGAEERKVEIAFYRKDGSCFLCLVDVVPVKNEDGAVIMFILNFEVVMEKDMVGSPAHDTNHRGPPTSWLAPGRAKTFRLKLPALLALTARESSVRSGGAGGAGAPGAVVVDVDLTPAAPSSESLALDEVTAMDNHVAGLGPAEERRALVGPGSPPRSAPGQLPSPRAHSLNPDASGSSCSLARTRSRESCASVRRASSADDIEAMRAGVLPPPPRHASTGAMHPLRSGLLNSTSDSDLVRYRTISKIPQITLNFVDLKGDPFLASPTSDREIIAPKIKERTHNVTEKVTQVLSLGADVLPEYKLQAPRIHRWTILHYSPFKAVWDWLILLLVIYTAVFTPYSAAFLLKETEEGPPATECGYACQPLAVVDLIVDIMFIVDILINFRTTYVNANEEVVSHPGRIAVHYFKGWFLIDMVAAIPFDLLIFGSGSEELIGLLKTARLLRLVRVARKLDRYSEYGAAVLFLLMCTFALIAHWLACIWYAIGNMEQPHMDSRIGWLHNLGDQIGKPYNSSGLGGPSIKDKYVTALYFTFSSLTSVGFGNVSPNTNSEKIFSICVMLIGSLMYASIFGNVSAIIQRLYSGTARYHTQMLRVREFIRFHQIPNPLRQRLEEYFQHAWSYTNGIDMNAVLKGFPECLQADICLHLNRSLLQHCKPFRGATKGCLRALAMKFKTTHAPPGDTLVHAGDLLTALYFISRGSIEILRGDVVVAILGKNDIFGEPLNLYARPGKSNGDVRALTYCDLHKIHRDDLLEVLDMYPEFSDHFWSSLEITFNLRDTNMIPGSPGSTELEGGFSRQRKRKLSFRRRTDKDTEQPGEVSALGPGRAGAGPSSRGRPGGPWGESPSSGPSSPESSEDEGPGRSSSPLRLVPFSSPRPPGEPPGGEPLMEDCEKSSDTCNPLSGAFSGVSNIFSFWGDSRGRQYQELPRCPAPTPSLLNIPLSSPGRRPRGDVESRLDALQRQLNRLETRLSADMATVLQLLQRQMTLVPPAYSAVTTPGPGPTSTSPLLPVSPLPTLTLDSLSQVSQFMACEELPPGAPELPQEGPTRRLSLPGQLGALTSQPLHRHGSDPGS

Compound	hERG current change (%, negative = inhibition) at 10uM
Fc1ccc(-c2ccc(/C=N\n3cnnc3)o2)cc1Cl	-10.8%
O=C(NC1CCCCC1)C(c1ccc(F)cc1)N(Cc1ccccc1)C(=O)CN1C(=O)c2ccccc2S1(=O)=O (stereo not shown)	8.7%
O=c1/c(=C\c2ccc3c(c2)OCO3)sc2n1CCCN=2	-6.03%
COc1cccc(-n2nnnc2S(C)(=O)=O)c1	-13.5%
Cc1ccccc1N/N=C/c1ccc(N2CCOCC2)cc1	-2.55%
COc1ccccc1C(=O)N/N=C/C(C)=C/c1ccccc1	-73.8%
O=[N+]([O-])c1cccc(-c2nc(-c3ccncc3)no2)c1	-21.8%
COc1ccc(C(=O)NCC2CCCO2)cc1OC (stereo not shown)	19.1%
CC(C)Cn1c(SCC(=O)NC(=O)Nc2ccc3c(c2)OCCO3)nc2ccccc2c1=O	1.72%
COc1ccc(C(OC(=O)c2ccco2)C(=O)NC2CCCC2)cc1OC (stereo not shown)	4.34%
Cc1ccccc1NC(=O)c1ccc(CN(c2ccccc2)S(=O)(=O)c2ccccc2)cc1	12.3%
O=C(CCCn1c(=S)[nH]c2cc3c(cc2c1=O)OCO3)NC1CC1	13.3%
COc1ccc(OCCCC(=O)Nc2nccs2)cc1	7.39%
COc1ccc(NC(=O)CCN2CCN(S(=O)(=O)c3cc(Cl)ccc3OC)CC2)cc1	-27.7%
NC1=NC[C@@H](Cc2ccc(O)cc2)N1CCCCC1CCCCC1	-18.6%
C/C=C/c1ccc(OCCOCCOc2cccc3cccnc23)c(OC)c1	-50.5%
COc1ccccc1NC(=O)c1c[nH]c2ccccc12	6.06%
O=C(CSc1ccc2nnc(-c3cccnc3)n2n1)Nc1ccc(F)cc1	-31.5%
CCOC(=O)c1cccc(NC(=O)CCc2nnc3ccc(N4CCCCC4)nn23)c1	7.86%
O=C(Nc1ccc(SC(F)F)cc1)c1ccc2nccnc2c1	-17.1%
COc1ccc(-c2cc(C(=O)Nc3ccccc3SC)no2)cc1OC	0.708%
O=C1CCC(C(=O)N2CCC(CCO)CC2)CN1Cc1ccc(Cl)cc1 (stereo not shown)	-6.49%
Cc1ccc(O)c(C2=Nc3ccccc3N=C(c3ccco3)C2)c1	10.4%
COC(=O)CSc1nnc(-c2ccc(S(=O)(=O)N3CCCC3)cc2)o1	18.6%
COc1cccc(COc2ccc3c(C)c(Cc4ccccc4)c(=O)oc3c2)c1	6.98%
